# Values of other authors as cited in PMC11006913.
# Residue numbers refer to the chain shown, from its start. The list shows a part of the results.
# Key:
# Conditions in all cases: PBM; conditions not shown; double strand, one strand shown; scale: upbm affinity estimate (log intensity, higher = more binding, comparable within an allelic series)
# ISX (Homo sapiens) = ISX (Homo sapiens) (UniProt Q2M1V0)
# ISX R83Q (Homo sapiens) = ISX R83Q (Homo sapiens) (UniProt Q2M1V0)
# [1] = target: NKX2-5 K183E (Homo sapiens) (UniProt P52952)
# [2] = target: NKX2-5 R161P (Homo sapiens) (UniProt P52952)
# [3] = target: NKX2-5 R190C (Homo sapiens) (UniProt P52952)
# PBX4 (Homo sapiens) = target: T1, PBX4 (Homo sapiens) (UniProt Q9BYU1)
# T1 sequence: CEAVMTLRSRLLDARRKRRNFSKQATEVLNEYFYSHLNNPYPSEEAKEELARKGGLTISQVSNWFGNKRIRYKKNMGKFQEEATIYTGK
# [4] = target: T2, PBX4 R215Q (Homo sapiens) (UniProt Q9BYU1)
# T2 sequence: T1 sequence with R19Q
# [5] = target: PITX2 L100Q (Homo sapiens) (UniProt Q99697)
# [6] = target: PITX2 R108H (Homo sapiens) (UniProt Q99697)
# [7] = target: PITX2 R130W (Homo sapiens) (UniProt Q99697)
# [8] = target: PITX2 T114P (Homo sapiens) (UniProt Q99697)
# [9] = target: PROP1 R112Q (Homo sapiens) (UniProt O75360)
# [10] = target: PROP1 R99Q (Homo sapiens) (UniProt O75360)
sequence,measurement,setting,value
GCGACCGC [8-mer GCGACCGC],binding signal,ISX (Homo sapiens),9.58
same,binding signal,ISX R83Q (Homo sapiens),9.63
same,binding signal,[1],9.98
same,binding signal,[2],10.1
same,binding signal,[3],9.94
GGCCTCCC [8-mer GGCCTCCC],binding signal,ISX (Homo sapiens),9.77
same,binding signal,ISX R83Q (Homo sapiens),9.77
same,binding signal,[1],10
same,binding signal,[2],10.2
same,binding signal,[3],9.97
CTATTATC [8-mer CTATTATC],binding signal,ISX (Homo sapiens),13.3
same,binding signal,ISX R83Q (Homo sapiens),11.6
CCAGCTGG [8-mer CCAGCTGG],binding signal,ISX (Homo sapiens),9.71
same,binding signal,ISX R83Q (Homo sapiens),9.74
CCCTGGTC [8-mer CCCTGGTC],binding signal,ISX (Homo sapiens),9.72
same,binding signal,ISX R83Q (Homo sapiens),9.75
same,binding signal,PBX4 (Homo sapiens),9.63
same,binding signal,[4],9.76
CGGCTTCC [8-mer CGGCTTCC],binding signal,ISX (Homo sapiens),9.8
same,binding signal,ISX R83Q (Homo sapiens),9.72
AGGACCCG [8-mer AGGACCCG],binding signal,ISX (Homo sapiens),9.73
same,binding signal,ISX R83Q (Homo sapiens),9.8
same,binding signal,[5],8.43
same,binding signal,[6],8.08
same,binding signal,[7],8.01
same,binding signal,[8],8.14
CGCTGGGC [8-mer CGCTGGGC],binding signal,ISX (Homo sapiens),9.79
same,binding signal,ISX R83Q (Homo sapiens),9.68
CGGCCCGC [8-mer CGGCCCGC],binding signal,ISX (Homo sapiens),9.62
same,binding signal,ISX R83Q (Homo sapiens),9.64
GCCCCCGC [8-mer GCCCCCGC],binding signal,ISX (Homo sapiens),9.52
same,binding signal,ISX R83Q (Homo sapiens),9.55
ACGCCGGC [8-mer ACGCCGGC],binding signal,ISX (Homo sapiens),9.61
same,binding signal,ISX R83Q (Homo sapiens),9.73
CGCCCGGC [8-mer CGCCCGGC],binding signal,ISX (Homo sapiens),9.66
same,binding signal,ISX R83Q (Homo sapiens),9.62
ACGCCAGG [8-mer ACGCCAGG],binding signal,ISX (Homo sapiens),9.74
same,binding signal,ISX R83Q (Homo sapiens),9.75
AGCCGGCA [8-mer AGCCGGCA],binding signal,ISX (Homo sapiens),9.88
same,binding signal,ISX R83Q (Homo sapiens),9.74
same,binding signal,[1],10
same,binding signal,[2],9.91
same,binding signal,[3],9.97
GCCTCGCC [8-mer GCCTCGCC],binding signal,ISX (Homo sapiens),9.5
same,binding signal,ISX R83Q (Homo sapiens),9.6
GCCGTCGC [8-mer GCCGTCGC],binding signal,ISX (Homo sapiens),9.86
same,binding signal,ISX R83Q (Homo sapiens),9.76
same,binding signal,[1],10.2
same,binding signal,[2],10.2
same,binding signal,[3],10.2
GACGCGCC [8-mer GACGCGCC],binding signal,ISX (Homo sapiens),9.78
same,binding signal,ISX R83Q (Homo sapiens),9.77
CACCCGGC [8-mer CACCCGGC],binding signal,ISX (Homo sapiens),9.74
same,binding signal,ISX R83Q (Homo sapiens),9.73
CCCCTGGC [8-mer CCCCTGGC],binding signal,ISX (Homo sapiens),9.97
same,binding signal,ISX R83Q (Homo sapiens),9.8
CTGCTGGC [8-mer CTGCTGGC],binding signal,ISX (Homo sapiens),9.7
same,binding signal,ISX R83Q (Homo sapiens),9.68
ACCGGGCC [8-mer ACCGGGCC],binding signal,ISX (Homo sapiens),9.86
same,binding signal,ISX R83Q (Homo sapiens),9.82
CCCCCTTC [8-mer CCCCCTTC],binding signal,ISX (Homo sapiens),9.54
same,binding signal,ISX R83Q (Homo sapiens),9.7
CCCCGGGC [8-mer CCCCGGGC],binding signal,ISX (Homo sapiens),9.7
same,binding signal,ISX R83Q (Homo sapiens),9.75
CCACTGGC [8-mer CCACTGGC],binding signal,ISX (Homo sapiens),9.74
same,binding signal,ISX R83Q (Homo sapiens),9.81
CACAGCCC [8-mer CACAGCCC],binding signal,ISX (Homo sapiens),9.79
same,binding signal,ISX R83Q (Homo sapiens),9.76
CCCGCGCA [8-mer CCCGCGCA],binding signal,ISX (Homo sapiens),9.74
same,binding signal,ISX R83Q (Homo sapiens),9.75
GGCCCGCA [8-mer GGCCCGCA],binding signal,ISX (Homo sapiens),9.82
same,binding signal,ISX R83Q (Homo sapiens),9.8
CCGCTCCG [8-mer CCGCTCCG],binding signal,ISX (Homo sapiens),9.87
same,binding signal,ISX R83Q (Homo sapiens),9.79
CCGGGTGC [8-mer CCGGGTGC],binding signal,ISX (Homo sapiens),9.78
same,binding signal,ISX R83Q (Homo sapiens),9.7
CTCCCCCC [8-mer CTCCCCCC],binding signal,ISX (Homo sapiens),9.68
same,binding signal,ISX R83Q (Homo sapiens),9.73
AGGCCGGG [8-mer AGGCCGGG],binding signal,ISX (Homo sapiens),9.66
same,binding signal,ISX R83Q (Homo sapiens),9.7
CCTGGGGC [8-mer CCTGGGGC],binding signal,ISX (Homo sapiens),9.39
same,binding signal,ISX R83Q (Homo sapiens),9.62
same,binding signal,[5],8.2
same,binding signal,[6],7.84
same,binding signal,[7],7.69
same,binding signal,[8],7.82
GCCCAGCC [8-mer GCCCAGCC],binding signal,ISX (Homo sapiens),9.77
same,binding signal,ISX R83Q (Homo sapiens),9.78
CCACCGGC [8-mer CCACCGGC],binding signal,ISX (Homo sapiens),9.57
same,binding signal,ISX R83Q (Homo sapiens),9.66
CTGCGCCC [8-mer CTGCGCCC],binding signal,ISX (Homo sapiens),9.57
same,binding signal,ISX R83Q (Homo sapiens),9.73
CTGGGCCC [8-mer CTGGGCCC],binding signal,ISX (Homo sapiens),9.71
same,binding signal,ISX R83Q (Homo sapiens),9.65
GGCCGCCA [8-mer GGCCGCCA],binding signal,ISX (Homo sapiens),9.83
same,binding signal,ISX R83Q (Homo sapiens),9.72
CGCGGGCC [8-mer CGCGGGCC],binding signal,ISX (Homo sapiens),9.73
same,binding signal,ISX R83Q (Homo sapiens),9.71
AGCTGGCG [8-mer AGCTGGCG],binding signal,ISX (Homo sapiens),9.64
same,binding signal,ISX R83Q (Homo sapiens),9.74
same,binding signal,[5],8.33
same,binding signal,[6],8.03
same,binding signal,[7],7.91
same,binding signal,[8],8.08
GAAGGACC [8-mer GAAGGACC],binding signal,ISX (Homo sapiens),9.65
same,binding signal,ISX R83Q (Homo sapiens),9.83
same,binding signal,[9],10.8
same,binding signal,[10],10.9
ATAATTTG [8-mer ATAATTTG],binding signal,ISX R83Q (Homo sapiens),12.2
AACTTATT [8-mer AACTTATT],binding signal,ISX (Homo sapiens),12.3
same,binding signal,[9],11.9
CGGTACTC [8-mer CGGTACTC],binding signal,[1],10.4
AAGTGAGC [8-mer AAGTGAGC],binding signal,[1],10.7
CCTCTTAA [8-mer CCTCTTAA],binding signal,ISX (Homo sapiens),11.8
same,binding signal,[1],11.7
same,binding signal,[2],12.1
same,binding signal,[3],10.8
CAGGGTGC [8-mer CAGGGTGC],binding signal,ISX (Homo sapiens),9.7
same,binding signal,ISX R83Q (Homo sapiens),9.8
same,binding signal,[5],8.31
same,binding signal,[6],8.07
same,binding signal,[7],7.96
same,binding signal,[8],8.12
CAAGGGTC [8-mer CAAGGGTC],binding signal,[1],10.6
